# The other results are listed elsewhere or left out.
# Columns and labels:
# Assay in all cases: glycan array binding signal (z-score within array); higher = stronger binding
# Conditions in all cases: glycan notation: IUPAC condensed, linker removed
# [1] = biological target: Gal(b1-4)GlcNAc(b1-3)Gal(b1-4)GlcNAc(b1-3)Gal(b1-4)GlcNAc
# Outline: (§1)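 The Consortium for Functional Glycomics database supplied 3228 glycan arrays, of which those lacking an available protein sequence were dropped. The binding signal, a within-array Z-score, was averaged across arrays of the same protein sequence and across linkers. Negative scores can be read as non-binding.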
# [2] = biological target: Gal(b1-4)GlcNAc(b1-3)Gal(b1-4)[Fuc(a1-3)]GlcNAc(b1-3)Gal(b1-4)[Fuc(a1-3)]GlcNAc
# Outline: as §1
# [3] = biological target: Gal(b1-4)GlcNAc(b1-3)GalNAc
# Outline: as §1
# [4] = biological target: Gal(b1-4)GlcNAc(b1-3)[Gal(b1-4)GlcNAc(b1-6)]Gal(b1-4)GlcNAc
# Outline: as §1
# [5] = biological target: Gal(b1-4)GlcNAc(b1-3)[GlcNAc(b1-6)]Gal(b1-4)GlcNAc
# Outline: as §1
# [6] = biological target: Gal(b1-4)GlcNAc(b1-6)Gal(b1-4)GlcNAc
# Outline: as §1
# [7] = biological target: Gal(b1-4)GlcNAc(b1-6)Gal(b1-4)GlcNAc(b1-6)GalNAc
# Outline: as §1
# [8] = biological target: Gal(b1-4)GlcNAc(b1-6)GalNAc
# Outline: as §1
# [9] = biological target: Gal(b1-4)GlcNAc(b1-6)[Gal(b1-3)]GalNAc
# Outline: as §1
# [10] = biological target: Gal3S(b1-3)GalNAc
# Outline: as §1
# [11] = biological target: Gal3S(b1-3)GlcNAc
# Outline: as §1
# [12] = biological target: Gal3S(b1-3)[Fuc(a1-4)]GlcNAc
# Outline: as §1
# [13] = biological target: Gal3S(b1-4)Glc
# Outline: as §1
# [14] = biological target: Gal3S(b1-4)Glc6S
# Outline: as §1
# [15] = biological target: Gal3S(b1-4)GlcNAc
# Outline: as §1
# [16] = biological target: Gal3S(b1-4)GlcNAc6S
# Outline: as §1
# [17] = biological target: Gal3S(b1-4)[Fuc(a1-3)]Glc
# Outline: as §1
# [18] = biological target: Gal3S4S(b1-4)GlcNAc
# Outline: as §1
# [19] = biological target: Gal3S6S(b1-4)GlcNAc
# Outline: as §1
# [20] = biological target: Gal3S6S(b1-4)GlcNAc6S
# Outline: as §1
# [21] = biological target: Gal4S(b1-4)GlcNAc
# Outline: as §1
# [22] = biological target: Gal4S6S(b1-4)GlcNAc
# Outline: as §1
# [23] = biological target: Gal6S(b1-4)Glc
# Outline: as §1
# [24] = biological target: Gal6S(b1-4)Glc6S
# Outline: as §1
# [25] = biological target: Gal6S(b1-4)GlcNAc
# Outline: as §1
# [26] = biological target: Gal6S(b1-4)GlcNAc6S
# Outline: as §1
# [27] = biological target: GalNAc(a1-3)Gal
# Outline: as §1
# [28] = biological target: GalNAc(a1-3)GalNAc
# Outline: as §1
# [29] = biological target: GalNAc(b1-3)Gal
# Outline: as §1
# [30] = biological target: GalNAc(b1-3)Gal(a1-4)Gal(b1-4)GlcNAc
# Outline: as §1
# [31] = biological target: GalNAc(b1-3)GalNAc
# Outline: as §1
# [32] = biological target: GalNAc(b1-4)GlcNAc
# Outline: as §1
# [33] = biological target: Glc(a1-4)Glc
# Outline: as §1
# [34] = biological target: Glc(a1-6)Glc(a1-6)Glc
# Outline: as §1
# [35] = biological target: Glc(b1-4)Glc
# Outline: as §1
# [36] = biological target: Glc(b1-6)Glc
# Outline: as §1
# [37] = biological target: GlcA(b1-3)Gal
# Outline: as §1
# [38] = biological target: GlcA(b1-3)GlcNAc
# Outline: as §1
# [39] = biological target: GlcA(b1-6)Gal
# Outline: as §1
# [40] = biological target: GlcNAc(a1-3)Gal(b1-4)GlcNAc
# Outline: as §1
# [41] = biological target: GlcNAc(a1-6)Gal(b1-4)GlcNAc
# Outline: as §1
# [42] = biological target: GlcNAc(b1-2)Gal(b1-3)GalNAc
# Outline: as §1
# [43] = biological target: GlcNAc(b1-2)Man(a1-3)[GlcNAc(b1-2)Man(a1-6)]Man(b1-4)GlcNAc(b1-4)GlcNAc
# Outline: as §1
# [44] = biological target: GlcNAc(b1-3)Gal
# Outline: as §1
# [45] = biological target: GlcNAc(b1-3)Gal(b1-3)GalNAc
# Outline: as §1
# [46] = biological target: GlcNAc(b1-3)Gal(b1-4)Glc
# Outline: as §1
# [47] = biological target: GlcNAc(b1-3)Gal(b1-4)GlcNAc
# Outline: as §1
# [48] = biological target: GlcNAc(b1-3)Gal(b1-4)GlcNAc(b1-3)Gal(b1-4)GlcNAc
# Outline: as §1
# [49] = biological target: GlcNAc(b1-3)GalNAc
# Outline: as §1
# [50] = biological target: GlcNAc(b1-3)Man
# Outline: as §1
# [51] = biological target: GlcNAc(b1-3)[GlcNAc(b1-4)][GlcNAc(b1-6)]GlcNAc
# Outline: as §1
# [52] = biological target: GlcNAc(b1-3)[GlcNAc(b1-6)]Gal(b1-4)GlcNAc
# Outline: as §1
# [53] = biological target: GlcNAc(b1-3)[GlcNAc(b1-6)]GalNAc
# Outline: as §1
# [54] = biological target: GlcNAc(b1-4)Gal(b1-4)GlcNAc
# Outline: as §1
# [55] = biological target: GlcNAc(b1-4)GlcNAc
# Outline: as §1
# [56] = biological target: GlcNAc(b1-4)GlcNAc(b1-4)GlcNAc
# Outline: as §1
# [57] = biological target: GlcNAc(b1-4)GlcNAc(b1-4)GlcNAc(b1-4)GlcNAc(b1-4)GlcNAc
# Outline: as §1
# [58] = biological target: GlcNAc(b1-4)GlcNAc(b1-4)GlcNAc(b1-4)GlcNAc(b1-4)GlcNAc(b1-4)GlcNAc
# Outline: as §1
# [59] = biological target: GlcNAc(b1-4)[GlcNAc(b1-6)]GalNAc
# Outline: as §1
# [60] = biological target: GlcNAc(b1-6)Gal(b1-4)GlcNAc
# Outline: as §1
# [61] = biological target: GlcNAc(b1-6)GalNAc
# Outline: as §1
# [62] = biological target: GlcNAc3Prop(b1-4)GlcNAc
# Outline: as §1
# [63] = biological target: Kdn(a2-3)Gal(b1-3)GlcNAc
# Outline: as §1
# [64] = biological target: Kdn(a2-3)Gal(b1-4)GlcNAc
# Outline: as §1
# [65] = biological target: Man(a1-2)Man(a1-2)Man(a1-3)Man
# Outline: as §1
# [66] = biological target: Man(a1-2)Man(a1-2)Man(a1-6)[Man(a1-3)]Man
# Outline: as §1
# [67] = biological target: Man(a1-2)Man(a1-3)Man
# Outline: as §1
# [68] = biological target: Man(a1-2)Man(a1-3)[Man(a1-2)Man(a1-6)]Man
# Outline: as §1
# [69] = biological target: Man(a1-2)Man(a1-3)[Man(a1-2)Man(a1-6)]Man(a1-6)[Man(a1-2)Man(a1-2)Man(a1-3)]Man
# Outline: as §1
# [70] = biological target: Man(a1-2)Man(a1-3)[Man(a1-2)Man(a1-6)]Man(a1-6)[Man(a1-2)Man(a1-2)Man(a1-3)]Man(b1-4)GlcNAc(b1-4)GlcNAc
# Outline: as §1
# [71] = biological target: Man(a1-2)Man(a1-3)[Man(a1-6)]Man(a1-6)[Man(a1-2)Man(a1-3)]Man(b1-4)GlcNAc(b1-4)GlcNAc
# Outline: as §1
# [72] = biological target: Man(a1-2)Man(a1-6)[Man(a1-3)]Man(a1-6)[Man(a1-2)Man(a1-2)Man(a1-3)]Man
# Outline: as §1
# [73] = biological target: Man(a1-2)Man(a1-6)[Man(a1-3)]Man(a1-6)[Man(a1-2)Man(a1-2)Man(a1-3)]Man(b1-4)GlcNAc(b1-4)GlcNAc
# Outline: as §1
# [74] = biological target: Man(a1-3)[Man(a1-6)]Man
# Outline: as §1
binder,measurement,setting,value
"Ficolin A (Rattus norvegicus), Q9WTS8 (protein) MWWPMLWAFPVLLCLCSSQALGQESGACPDVKIVGLGAQDKVAVIQSCPSFPGPPGPKGEPGSPAGRGERGLQGSPGKMGPPGSKGEPGTMGPPGVKGEKGERGTASPLGQKELGDALCRRGPRSCKDLLTRGIFLTGWYTIYLPDCRPLTVLCDMDVDGGGWTVFQRRVDGSINFYRDWDSYKRGFGNLGTEFWLGNDYLHLLTANGNQELRVDLREFQGQTSFAKYSSFQVSGEQEKYKLTLGQFLEGTAGDSLTKHNNMAFSTHDQDNDTNGGKNCAALFHGAWWYHDCHQSNLNGRYLPGSHESYADGINWLSGRGHRYSYKVAEMKIRAS",glycan array binding signal (z-score),[1],-0.093
same,glycan array binding signal (z-score),[2],-0.029
same,glycan array binding signal (z-score),[3],-0.093
same,glycan array binding signal (z-score),[4],-0.045
same,glycan array binding signal (z-score),[5],-0.089
same,glycan array binding signal (z-score),[6],-0.106
same,glycan array binding signal (z-score),[7],-0.087
same,glycan array binding signal (z-score),[8],-0.095
same,glycan array binding signal (z-score),[9],-0.102
same,glycan array binding signal (z-score),[10],-0.085
same,glycan array binding signal (z-score),[11],-0.038
same,glycan array binding signal (z-score),[12],-0.067
same,glycan array binding signal (z-score),[13],-0.121
same,glycan array binding signal (z-score),[14],-0.014
same,glycan array binding signal (z-score),[15],-0.099
same,glycan array binding signal (z-score),[16],-0.062
same,glycan array binding signal (z-score),[17],0.001
same,glycan array binding signal (z-score),[18],-0.103
same,glycan array binding signal (z-score),[19],-0.117
same,glycan array binding signal (z-score),[20],-0.124
same,glycan array binding signal (z-score),[21],-0.049
same,glycan array binding signal (z-score),[22],-0.105
same,glycan array binding signal (z-score),[23],0.006
same,glycan array binding signal (z-score),[24],0.07
same,glycan array binding signal (z-score),[25],-0.005
same,glycan array binding signal (z-score),[26],-0.104
same,glycan array binding signal (z-score),[27],0.04
same,glycan array binding signal (z-score),[28],-0.099
same,glycan array binding signal (z-score),[29],-0.063
same,glycan array binding signal (z-score),[30],-0.058
same,glycan array binding signal (z-score),[31],-0.094
same,glycan array binding signal (z-score),[32],-0.074
same,glycan array binding signal (z-score),[33],-0.077
same,glycan array binding signal (z-score),[34],-0.094
same,glycan array binding signal (z-score),[35],-0.11
same,glycan array binding signal (z-score),[36],0.025
same,glycan array binding signal (z-score),[37],-0.071
same,glycan array binding signal (z-score),[38],-0.049
same,glycan array binding signal (z-score),[39],-0.07
same,glycan array binding signal (z-score),[40],-0.083
same,glycan array binding signal (z-score),[41],17.3
same,glycan array binding signal (z-score),[42],-0.062
same,glycan array binding signal (z-score),[43],-0.048
same,glycan array binding signal (z-score),[44],-0.109
same,glycan array binding signal (z-score),[45],-0.101
same,glycan array binding signal (z-score),[46],-0.056
same,glycan array binding signal (z-score),[47],-0.094
same,glycan array binding signal (z-score),[48],-0.045
same,glycan array binding signal (z-score),[49],-0.114
same,glycan array binding signal (z-score),[50],-0.09
same,glycan array binding signal (z-score),[51],0.055
same,glycan array binding signal (z-score),[52],-0.081
same,glycan array binding signal (z-score),[53],-0.07
same,glycan array binding signal (z-score),[54],-0.084
same,glycan array binding signal (z-score),[55],-0.079
same,glycan array binding signal (z-score),[56],-0.09
same,glycan array binding signal (z-score),[57],-0.106
same,glycan array binding signal (z-score),[58],-0.084
same,glycan array binding signal (z-score),[59],-0.056
same,glycan array binding signal (z-score),[60],-0.087
same,glycan array binding signal (z-score),[61],-0.12
same,glycan array binding signal (z-score),[62],-0.099
same,glycan array binding signal (z-score),[63],-0.114
same,glycan array binding signal (z-score),[64],-0.096
same,glycan array binding signal (z-score),[65],-0.068
same,glycan array binding signal (z-score),[66],-0.079
same,glycan array binding signal (z-score),[67],-0.107
same,glycan array binding signal (z-score),[68],-0.093
same,glycan array binding signal (z-score),[69],-0.092
same,glycan array binding signal (z-score),[70],-0.07
same,glycan array binding signal (z-score),[71],-0.063
same,glycan array binding signal (z-score),[72],0.013
same,glycan array binding signal (z-score),[73],-0.096
same,glycan array binding signal (z-score),[74],-0.085

# From the supplement of paper PMC8728848
